# Assay results published in PubChem BioAssay (Tox21).
# Inconclusive results, whose numbers are uncertain, are shown with a selection of clear calls. Potencies of inconclusive entries are doubtful fits and often do not repeat. Activity calls are given as the source filed them. Calls come from the whole dose curve; as a rule, active = well fitted curve in the direction sought with a large enough effect in the repeat runs; inconclusive = weak or mixed curves; inactive = no such curve, though single readings can be large; an effect the other way counts as inactive or inconclusive.
# Assay: qHTS assay to identify small molecule antagonists of the retinoid acid receptor (RAR) signaling pathway - cell viability counter screen (AID 1159551); note: nearly all actives have a fitted effect of over 35% in size; for activity change, negative = cytotoxicity: % is set by controls: 0 for no effect and ±100 for the full control effect
# Details: C3RL4 cells viability, ATP luminescence (CellTiter-Glo), 6 h; series mostly up to 92.4 µM; activity change, negative = cytotoxicity: at the top concentration
# Procedure, shortened: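 C3RL4 RARE-luciferase line; cpds + retinol 1 uM final, 6 h, 37 C/5% CO2; CellTiter-Glo ATP luminescence, 30 min RT.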
# Potency is the fitted concentration of half-maximal effect; tags give direction and shape of the fitted curve.
Compound,Potency,"activity change, negative = cytotoxicity"
CN1[C@@H]2CC[C@H]1CC(OC(=O)C(CO)c1ccccc1)C2 (some centres not stated),"inconclusive: 30.6 µM [rising, partial curve, poor fit]",–
C=C(C)C(=O)O[C@H]1C[C@@H]2CC[C@@]1(C)C2(C)C,"inconclusive: 9.63 µM [rising, full curve]",–
C=CC(O)CCCCC (configuration not stated),–,inactive: -1.73%
Oc1ccc(C2(c3ccc(O)c(C4CCCCC4)c3)CCCCC2)cc1C1CCCCC1,inconclusive: 68.6 µM [cytotoxic],–
CSc1ccc(O)cc1C,inconclusive: 68.6 µM [single point],–
CC1=CC(=O)NS(=O)(=O)O1,"inconclusive: 8.65 µM [cytotoxic, partial curve, poor fit]",–
CCC(=O)OC(C)(C)C1CC=C(C)CC1 (configuration not stated),–,inactive: -1.15%
C=CC(=O)OCCOc1ccccc1,"inconclusive: 48.5 µM [rising, partial curve, poor fit]",–
COc1ccc(OC)c(N=Nc2c(O)ccc3ccccc23)c1,active: 17.2 µM,–
CCN(CC)c1ccc(N=Nc2ccccc2)cc1,"inconclusive: 68.6 µM [cytotoxic, partial curve, poor fit]",–
CN(C)CCC(c1ccc(Cl)cc1)c1ccccn1 (configuration not stated),"inconclusive: 54.6 µM [cytotoxic, partial curve]",–
CC1=C(C)C(=O)C(CCCCC#CCCCC#CCO)=C(C)C1=O,–,inactive: -2.7% [at 42.5 µM]
CCN(CC)CCOC(=O)C(c1ccccc1)C1CCCCC1 (configuration not stated),"inconclusive: 37.6 µM [cytotoxic, partial curve, poor fit]",–
CN(C)CCCNCCCN,–,inactive: -2.21%

# Assay: qHTS assay to identify small molecule antagonists of the retinoic acid receptor (RAR) signaling pathway (AID 1159552; note: nearly all actives have a fitted effect of over 50% in size)
# Details: C3RL4 RARE luciferase reporter, retinol-stimulated, 6 h; series mostly up to 92.4 µM; activity, negative = inhibition: at the top concentration
# Procedure, shortened: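 Luminescent RARE reporter read-out in C3RL4 cells: 6 hr co-treatment at 37 C of test compounds with retinol at 1 uM final. Cells plated overnight beforehand; luciferase reagent incubated 30 min at room temperature before reading.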
row,Compound,Potency
1,CSc1ccc(O)cc1C,"inconclusive: 77 µM [inhibitor, single point]"
2,C=CC(=O)OCCOc1ccccc1,active: 48.5 µM
3,CCN(CC)CCOC(=O)C(c1ccccc1)C1CCCCC1 (configuration not stated),"inconclusive: 15 µM [inhibitor, full curve]"
